In the supplement of paper PMC12217912:
The other results are listed elsewhere or left out. The full chains were built here from the parent and the listed change. Inactive controls read about 0.05.

B1: TEV protease; numbered along this chain (parent)
chain: MGESLFKGPRDYNPISSSICHLTNESDGHTTSLYGIGFGPFIITNKHLFRRNNGTLVVQSLHGVFKVKDTTTLQQHLVDGRDMIIIRMPKDFPPFPQKLKFREPQREERICLVTTNFQTKSMSSMVSDTSCTFPSGDGIFWKHWIQTKDGQCGSPLVSTRDGFIVGIHSASNFTNTNNYFTSVPKNFMELLTNQEAQQWVSGWRLNADSVLWGGHKVFMVKPEEPFQPVKEATQL

Variants of: B1
Assay: raw area under fraction-flipped curve 0-4 h after induction (AUC4h, not background-subtracted), DNA-recorder readout of cleavage of the substrate (dimensionless); higher = more cleavage of the substrate by the protease variant
Conditions: temperature: 34 °C; time window: 0-4 h after rhamnose induction
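Also: Bxb1 expression induced with 0.2% (w/v) L-rhamnose at OD600 near 0.5, cultures sampled hourly, flipped fraction per protease–substrate barcode pair counted by paired-end Illumina sequencing.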

Variant | area with substrate ENLYDQS | area with substrate ENLYEQS | area with substrate ENLYGQS | area with substrate ENLYHQS | area with substrate ENLYIQS | area with substrate ENLYKQS | area with substrate ENLYLQS | area with substrate ENLYMQS | area with substrate ENLYNQS | area with substrate ENLYPQS | area with substrate ENLYRQS | area with substrate ENLYSQS | area with substrate ENLYVQS | area with substrate ENLYWQS | area with substrate ENLYQQS | area with substrate ENLYYQS | area with substrate ENLYTQS
MGESLFKGPRDYNPISSSICHLTNESDGHTTSLYGIGFGPFIITNKHLFRRNNGTLVVQSLHGVFKVKDTTTLQQHLVDGRDMIIIRMPKDFPPFPQKLKFREPQSEERICLVTTNFQTKSMSSMVSDTSCTFPSGDGIFWKHWIQTKDGQCGSPLVSTRDGFIVGIHSASNFTNTNNYFTSVPKNFMELLTNQEAQQWVSGWRLNADSVLWGGHKVFMVKPEEPFQPVKEATQL [R106S] | 0.0598 | 0.0693 | 0.0619 | 0.0654 | 0.12 | 0.071 | 0.0991 | 0.0849 | 0.0665 | 0.082 | 0.0725 | 0.0703 | 0.128 | 0.074 |  |  | 
MGESLFKGPRDYNPISSSICHLTNESDGHTTSLYGIGFGPFIITNKHLFRRNNGTLVVQSLHGVFKVKDRTTLQQHLVDGRDMIIIRMPKDFPPFPQKLKFREPQREERICLVTTNFQTKSMSSMVSDTSCTFPSGDGIFWKHWIQTKDGQCGSPLVSTRDGFIVGIHSASNFTNTNNYFTSVPKNFMELLTNQEAQQWVSGWRLNADSVLWGGHKVFMVKPEEPFQPVKEATQL [T70R] | 0.07 | 0.0538 | 0.0604 | 0.0548 | 0.0865 | 0.0407 |  |  | 0.0524 | 0.0641 |  |  | 0.121 | 0.064 | 0.0873 | 0.0496 | 
MGESLFKGPRDYNPISSSICHLTNESDGHTTSLYGIGFGPFIITNKHLFRRNNGTLVVQSLHGVFKVKDTTTLQQHLVDGRDMIIIRMPKDFPPFPQKLKFREPQREERICLMTTNFQTKSMSSMVSDTSCTFPSGDGIFWKHWIQTKDGQCGSPLVSTRDGFIVGIHSASNFTNTNNYFTSVPKNFMELLTNQEAQQWVSGWRLNADSVLWGGHKVFMVKPEEPFQPVKEATQL [V113M] | 0.0624 | 0.062 |  | 0.0742 | 0.0849 |  |  | 0.0835 | 0.0723 |  |  | 0.0752 | 0.137 | 0.0747 | 0.0639 | 0.0449 | 
MGFSLFKGPRDYNPISSSICHLTNESDGHTTSLYGIGFGPFIITNKHLFRRNNGTLVVQSLHGVFKVKDTTTLQQHLVDGRDMIIIRMPKDFPPFPQKLKFREPQREERICLVTTNFQTKSMSSMVSDTSCTFPSGDGIFWKHWIQTKDGQCGSPLVSTRDGFIVGIHSASNFTNTNNYFTSVPKNFMELLTNQEAQQWVSGWRLNADSVLWGGHKVFMVKPEEPFQPVKEATQL [E3F] | 0.0611 | 0.0565 | 0.0634 | 0.0668 |  | 0.0686 |  | 0.0828 |  |  |  |  | 0.149 |  | 0.0707 | 0.0677 | 0.0944
MGESLFKGPRDYNPISSSICHLTNESDGHTTSLYGIGFGPFIITNKHLFRRNNGTLVVQSLHGVFKVKDTTTLQWHLVDGRDMIIIRMPKDFPPFPQKLKFREPQREERICLVTTNFQTKSMSSMVSDTSCTFPSGDGIFWKHWIQTKDGQCGSPLVSTRDGFIVGIHSASNFTNTNNYFTSVPKNFMELLTNQEAQQWVSGWRLNADSVLWGGHKVFMVKPEEPFQPVKEATQL [Q75W] | 0.0497 | 0.0556 | 0.0642 | 0.0611 |  | 0.057 | 0.0819 | 0.0477 | 0.0595 | 0.0496 | 0.0612 | 0.0554 | 0.0591 | 0.0568 |  | 0.042 | 
MGESLFKGPRDYNPISSSICHLTNESDGHTTSLYGIGFGPFIITNKHLFRRNNGTLVVQSLHGVFKVKDTTTLQQHLVDGRDMIIIRMPKDFPPFPQKLKFREPQREERICLVTTNFQTKSMSSMVSDTSCTFPSGDGIFWKHWIQTKDGQCGSPLVSTRDGFIVGIHSASNFTNTNNYFTSVPKNFMELLTNQEAQAWVSGWRLNADSVLWGGHKVFMVKPEEPFQPVKEATQL [Q198A] | 0.0591 | 0.0681 | 0.0499 |  |  | 0.0573 |  | 0.0873 | 0.0603 | 0.0602 |  | 0.0719 | 0.0935 | 0.0886 | 0.0681 | 0.0652 | 0.0704
MGESLFKGPRDYNPISSSICHLTNESDGHTTSLYGIGFGPFIITNKHLFRRNNGTLVVQSLHGVFKVKDTTTLQQHLVDGRDMIIIRMPKDFPPFPQKLKFREPQREERICLVTTNFQTKSMSSMVSDTSCTFPSGDGIFWKHWIQTKDGQCGSPLVSTRDGFIVGIHSASNFTNTNNYFTSVPKNFMELLTNQEAQTWVSGWRLNADSVLWGGHKVFMVKPEEPFQPVKEATQL [Q198T] | 0.0566 | 0.0709 | 0.0628 | 0.0542 | 0.131 | 0.0672 |  | 0.0888 |  | 0.0614 | 0.0604 |  | 0.124 |  | 0.0644 |  | 
MGESLFKGPRDYNPISSSICHLTNESDGHTTSLYGIGFGPFIITNKHLFRRNNGTLVVQSLHGVFKVKDTTTLQQHLVDGRDMIIIRMPKDFPPFPQKLKFREPQREERICLVTTNFQTKSMSSMVSDTSCTFPSGDGIFWKHWIQTKDGQCGSPLVSTRDGFIVGIHSASNFTNTNNYFTSVPKNFNELLTNQEAQQWVSGWRLNADSVLWGGHKVFMVKPEEPFQPVKEATQL [M188N] | 0.0554 | 0.0646 |  | 0.0642 |  | 0.0484 | 0.0806 | 0.0819 | 0.0679 |  | 0.0724 | 0.0775 |  |  |  |  | 
MGESLFKGPRDYNPISSSICHLTNESDGHTTSLYGIGFGPFIITNKHLFRRNNGTLVVQSLHGVFKVKDTTTLQQHLVDGRDMIIIRMPKDFPPFPQKLKFREPQREERICLVTTNFQTKSMSSMVSDTSCTFPSGDGIFWKHWIQTKDGQCGSPLVSTRDGFIVGIHSASNFTNTNNYFTSVPKNFMELLTNQEAQQWVSGWRLNADSVLWGGHKVFMVKPEEPFQPVKEAMQL [T233M] | 0.0518 | 0.0655 | 0.0765 | 0.0733 | 0.12 | 0.0399 |  | 0.0776 |  | 0.0709 |  |  | 0.119 | 0.0635 | 0.0146 |  | 
